# PubChem BioAssay AID1508642 (National Center for Advancing Translational Sciences (NCATS), 2021)
# About 200 (0.47%) of roughly 43,000 compounds were called active. Roughly 12% stayed inconclusive and do not appear here. The call rests on the fitted dose curve; in most records, active means well fitted cell-killing curve with a large enough effect; inconclusive means small, poorly fitted or top-dose-only effect, or effect the other way; inactive means flat fitted curve, though single readings scatter. The list shows a part of the results.
# Test: Cell viability qHTS assay in S16 Pmp22-F2sN cells; further: nearly all actives have a fitted effect of over 65% in size
# Conditions: S16 Pmp22-F2sN Schwann cells viability, CellTiter-Glo, 24 h; series mostly up to 57.5 µM; activity change, negative = cytotoxicity: at the top concentration
# Summary of the method: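 Viability was measured by CellTiter-Glo luminescence (15 min, room temperature). This followed 24 h at 37 °C of compound exposure (23 nL pin transfer) in S16 Pmp22-F2sN Schwann cells, 500-1,000 per well.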
# On the % scale 0 is the no-effect control and ±100 the full control effect.
row,Structure (SMILES),"activity change, negative = cytotoxicity"
1,Cc1ccc2c(c1)CC(C)N2S(=O)(=O)c1nnc(NC(=O)C(C)C)s1 (configuration not stated),inactive: 8.17%
2,COc1ccc(NC(=O)Cn2cc(C(=O)C3CCCCC3)c3ccccc32)cc1,inactive: -0.373%
3,Cc1c(Cl)cccc1NC(=O)C(=O)NCC(c1cccnc1)N1CCN(c2ccccc2)CC1 (configuration not stated),inactive: -22.6%
4,COc1ccc(-c2cc(C(F)(F)F)nc(SCCC(=O)Nc3cccc(O)c3)n2)cc1,inactive: -6.33%
5,Cc1cc(=O)n(CC(=O)Nc2cccc([N+](=O)[O-])c2)c(-n2nc(C)cc2C)n1,inactive: -1.77%
6,CCc1noc(-c2ccc(N(C)Cc3ccc(OC)cc3)c([N+](=O)[O-])c2)n1,inactive: -28.6%
7,COc1ccc(OC)c(NC(=O)N2CCC(N3CCN(Cc4ccc(F)cc4)C(=O)C3=O)CC2)c1,inactive: 6.59%
8,CCc1ccc(Nc2cc(C(=O)NCCCN(C)c3ccccc3)c3ccccc3n2)cc1,inactive: 15.3%
9,COC(=O)c1c(NC(=O)c2cc3nc(-c4ccc(Br)cc4)cc(C(F)(F)F)n3n2)sc2c1CCCC2,inactive: 0.932%
10,COc1ccccc1CNC(=O)c1cc2cc(C)ccc2n1C,inactive: -18.7%
11,CN(C)c1cccc(C(=O)N2CCC(c3ccncc3)CC2)c1,inactive: -0.238%
12,COCCNc1ncnc2onc(-c3ccc(F)cc3)c12,inactive: -0.299%
13,CC(C)Oc1ccc(C(=O)N2CC(=O)Nc3ccc(F)cc3C2c2ccc(F)cc2)cc1 (configuration not stated),inactive: -8.87%
14,CCOc1ccc(CNC(=O)CN2C(=O)C3CCCCN3c3ccc(C(=O)N4CCCC4)cc32)cc1 (configuration not stated),inactive: 7.97%
15,CCc1cccc(C)c1NC(=O)C(CC)n1ncn2c(cc3cc(C)ccc32)c1=O (configuration not stated),inactive: 1.83%
16,CCOc1ccc(CNC(=O)c2cnc3sc(N4CCCCCC4)nn3c2=O)cc1OC,inactive: 10.5%
17,Cc1ccc(S(=O)(=O)c2nc(S(=O)(=O)c3ccc(C)cc3)c(NC(C)C)s2)cc1,inactive: -1.36%
18,Cc1ccc(C)c(NC(=O)Cn2c(=O)n(Cc3ccc4c(c3)OCO4)c(=O)c3ccc(C(=O)NC4CCCCC4)cc32)c1,inactive: 11.3%
19,O=C(O)CCc1ccc(-c2cccs2)n1CC(=O)Nc1ccccc1C(F)(F)F,inactive: 4.11%
20,O=C(CSc1nc(-c2ccccc2)nc2c1CCCC2)c1ccc(Cl)cc1,inactive: 15.6%
21,COc1ccc(Cn2ccc3nc(C)c(C(=O)N4CCN(c5cc(C)ccc5C)CC4)cc3c2=O)cc1,inactive: -12.6%
22,COc1ccccc1CNC(=O)CN1C(=O)c2cccnc2Oc2ccccc21,inactive: -2.15%
23,CCOc1ccc(CNC(=O)C2CCN(C(=O)c3sccc3-n3cccc3)CC2)cc1,inactive: -5.61%
24,Cc1ccc(-n2c(SCCC(C)C)nc3sc4c(c3c2=O)CC(C)(C)OC4)cc1,inactive: 1.72%

row,Structure (SMILES),"activity change, negative = cytotoxicity"
1,COc1ccc(-c2cc(C(C)=O)c(C)n2CCC(=O)NC2CCCCC2)cc1,inactive: 2.55%
2,COc1ccc(OCCSc2nc3ccccc3n2CC(=O)N2CCOCC2)cc1,inactive: -3.95%
3,COc1ccc(NC(=O)CCCc2nnc3n(CCC(C)C)c(=O)c4sccc4n23)cc1Cl,inactive: 1.79%
4,O=c1c2c3c(sc2n(Cc2cc(=O)n4ccccc4n2)c(=O)n1-c1ccccc1)CCC3,inactive: -9.06%
5,Cc1ccc(C)c(NC(=O)c2nnn(CC(=O)Nc3cccc(C)c3C)c2N)c1,inactive: 0.85%
6,O=c1cc(CN2CCN(S(=O)(=O)c3ccccc3)CC2)nc2sc(-c3ccccc3Cl)nn12,inactive: 11%
7,O=C(CCSCc1ccccc1Cl)N1CCN(c2ccc(F)cc2)CC1,inactive: -7.35%
8,CCc1ccc(C(=O)c2cn(CC(=O)Nc3ccc4c(c3)OCCO4)c3ccc(C)cc3c2=O)cc1,inactive: -0.132%
9,CC(=O)c1ccc(NC(=O)COc2ccccc2-c2nc(-c3ccccc3)no2)cc1,inactive: 3.1%
10,COCc1cc(C)nc2sc3c(c12)NC(c1ccccc1C(=O)O)N(c1ccc(OC)cc1)C3=O (configuration not stated),inactive: 3.07%
11,O=C(CS(=O)(=O)c1nc(-c2ccc(Cl)cc2)cn1-c1ccccc1)Nc1ccc(F)cc1F,inactive: -28.7%
12,Cc1ccc(NC(=O)C(Cc2ccccc2)NS(=O)(=O)c2cccs2)cc1Cl (configuration not stated),inactive: 5.01%
13,COc1ccc(CC(=O)Nc2ccc(-c3nc4ccccc4s3)c(C)c2)cc1,inactive: 2.4%
14,COc1ccc(NC(=O)c2ccc3oc(=O)c(S(=O)(=O)c4ccc(F)cc4)cc3c2)c(OC)c1,inactive: -1.58%
15,CC(C)c1nc2sc3c(N4CCCCC4)ncnc3c2c2c1CCCC2,inactive: 8.64%
16,CCOc1ccc(-n2c(SCC(=O)c3ccccc3)nc3c([nH]c4ccccc43)c2=O)cc1,inactive: 2.42%
17,COCC(C)Nc1ncnc2c1cnn2-c1cccc(Cl)c1 (configuration not stated),inactive: -2.58%
18,COc1ccc(C(=O)Oc2ccc(C3NC(=O)c4c(sc5c4CCN(C)C5)N3)cc2OC)cc1 (configuration not stated),inactive: 4.46%
19,Cc1ccc(Cl)cc1N1CCN(C(=O)c2cc(S(=O)(=O)N3CCCCC3)cn2C)CC1,inactive: -0.317%
20,COC(=O)c1ccc(CSc2nc3ccncc3n2Cc2ccc(F)cc2)cc1,inactive: 9.36%
21,COc1ccc2cc3c(N)nn(C(=O)c4ccc(F)cc4Cl)c3nc2c1,inactive: -21.9%
22,CCn1c(=O)n(CC2CCC(C(=O)NC(C)C)CC2)c(=O)c2sccc21 (configuration not stated),inactive: -5.9%
23,CCOC(=O)c1c(C)[nH]c(C)c1S(=O)(=O)N1CCC(C(=O)Nc2ccc(OC)c(OC)c2)CC1,inactive: -13.7%
